Results published in the supplement of paper PMC12067093, “Discovery and optimisation of a covalent ligand for TRIM25 and its application to targeted protein ubiquitination” (Chemical Science, 2025).
Targets with the largest changes are over-represented here; the source holds about 21,000 in all.

Compound: Cc1cc(ccc1-c1ccccc1)C(=O)N1CCCN(CC1)C(=O)CCl [compound 10]
Assay: probe-labelled cysteine peptide fold change vs DMSO (competition) (log2 fold change); higher = less target engagement (more negative = stronger competition)
Conditions: THP-1, incubation time: 4 h
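Also: competitive profiling in live THP-1 cells: cysteine peptides tagged with an iodoacetamide desthiobiotin (IA-DTB) probe, intensity after compound treatment relative to DMSO-treated cells.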

Sequence of UniProt Q96C23 (Q96C23 whole entry, looked up): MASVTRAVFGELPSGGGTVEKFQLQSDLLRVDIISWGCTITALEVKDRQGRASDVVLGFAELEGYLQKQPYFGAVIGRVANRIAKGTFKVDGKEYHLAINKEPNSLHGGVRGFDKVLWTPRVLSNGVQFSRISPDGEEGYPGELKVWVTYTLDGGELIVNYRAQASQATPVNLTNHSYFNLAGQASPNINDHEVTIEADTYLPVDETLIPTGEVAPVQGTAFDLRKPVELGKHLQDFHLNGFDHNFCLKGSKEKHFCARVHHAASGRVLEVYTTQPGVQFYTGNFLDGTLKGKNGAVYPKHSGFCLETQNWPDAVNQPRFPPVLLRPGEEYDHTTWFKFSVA
Sequence of UniProt Q92538 (Q92538 whole entry, looked up): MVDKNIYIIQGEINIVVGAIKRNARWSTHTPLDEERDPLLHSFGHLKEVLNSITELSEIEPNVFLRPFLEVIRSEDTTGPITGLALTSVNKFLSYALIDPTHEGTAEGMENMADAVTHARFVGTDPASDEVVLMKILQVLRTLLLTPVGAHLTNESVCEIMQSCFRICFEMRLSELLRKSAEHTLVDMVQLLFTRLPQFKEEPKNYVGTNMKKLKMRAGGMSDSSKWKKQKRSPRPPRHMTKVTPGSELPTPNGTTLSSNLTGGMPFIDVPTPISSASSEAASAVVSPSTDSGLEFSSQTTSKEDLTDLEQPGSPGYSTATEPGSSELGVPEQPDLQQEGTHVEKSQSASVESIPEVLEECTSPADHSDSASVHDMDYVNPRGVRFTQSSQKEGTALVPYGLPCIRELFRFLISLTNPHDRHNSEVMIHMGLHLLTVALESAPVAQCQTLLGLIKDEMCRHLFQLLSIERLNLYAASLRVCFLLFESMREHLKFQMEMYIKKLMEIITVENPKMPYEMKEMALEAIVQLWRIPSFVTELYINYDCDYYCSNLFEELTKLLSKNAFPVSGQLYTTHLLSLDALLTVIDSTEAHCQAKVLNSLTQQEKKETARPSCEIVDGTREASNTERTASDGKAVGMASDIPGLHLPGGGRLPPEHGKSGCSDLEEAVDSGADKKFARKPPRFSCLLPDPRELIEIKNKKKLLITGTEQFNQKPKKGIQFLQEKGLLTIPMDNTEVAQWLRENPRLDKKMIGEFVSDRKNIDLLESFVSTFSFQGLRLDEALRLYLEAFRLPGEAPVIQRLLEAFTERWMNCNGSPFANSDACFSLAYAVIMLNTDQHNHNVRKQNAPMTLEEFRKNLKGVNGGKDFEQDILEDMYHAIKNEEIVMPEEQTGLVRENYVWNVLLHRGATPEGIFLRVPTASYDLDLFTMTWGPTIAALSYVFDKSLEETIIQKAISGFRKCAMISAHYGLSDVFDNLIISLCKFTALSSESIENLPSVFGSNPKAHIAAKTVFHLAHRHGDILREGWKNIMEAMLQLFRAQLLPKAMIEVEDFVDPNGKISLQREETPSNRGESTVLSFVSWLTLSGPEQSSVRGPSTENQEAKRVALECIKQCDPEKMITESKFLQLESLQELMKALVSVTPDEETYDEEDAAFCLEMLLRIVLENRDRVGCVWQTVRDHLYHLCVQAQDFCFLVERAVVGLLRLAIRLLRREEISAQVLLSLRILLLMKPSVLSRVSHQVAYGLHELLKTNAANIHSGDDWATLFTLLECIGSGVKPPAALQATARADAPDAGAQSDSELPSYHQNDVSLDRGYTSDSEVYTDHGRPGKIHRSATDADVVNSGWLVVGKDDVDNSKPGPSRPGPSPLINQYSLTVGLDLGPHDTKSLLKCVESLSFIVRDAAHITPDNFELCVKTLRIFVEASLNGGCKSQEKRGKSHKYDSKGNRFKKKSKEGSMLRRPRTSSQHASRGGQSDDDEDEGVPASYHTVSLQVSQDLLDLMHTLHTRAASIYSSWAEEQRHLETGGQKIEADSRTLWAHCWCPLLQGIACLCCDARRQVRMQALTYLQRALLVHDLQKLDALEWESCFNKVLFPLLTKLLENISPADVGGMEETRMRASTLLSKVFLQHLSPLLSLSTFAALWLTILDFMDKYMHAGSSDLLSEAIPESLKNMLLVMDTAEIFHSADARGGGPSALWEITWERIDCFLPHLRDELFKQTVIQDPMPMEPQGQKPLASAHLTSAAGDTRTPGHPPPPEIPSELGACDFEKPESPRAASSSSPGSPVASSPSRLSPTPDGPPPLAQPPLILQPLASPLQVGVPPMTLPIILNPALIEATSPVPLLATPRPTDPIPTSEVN
Sequence of UniProt P06280 (P06280 whole entry, looked up): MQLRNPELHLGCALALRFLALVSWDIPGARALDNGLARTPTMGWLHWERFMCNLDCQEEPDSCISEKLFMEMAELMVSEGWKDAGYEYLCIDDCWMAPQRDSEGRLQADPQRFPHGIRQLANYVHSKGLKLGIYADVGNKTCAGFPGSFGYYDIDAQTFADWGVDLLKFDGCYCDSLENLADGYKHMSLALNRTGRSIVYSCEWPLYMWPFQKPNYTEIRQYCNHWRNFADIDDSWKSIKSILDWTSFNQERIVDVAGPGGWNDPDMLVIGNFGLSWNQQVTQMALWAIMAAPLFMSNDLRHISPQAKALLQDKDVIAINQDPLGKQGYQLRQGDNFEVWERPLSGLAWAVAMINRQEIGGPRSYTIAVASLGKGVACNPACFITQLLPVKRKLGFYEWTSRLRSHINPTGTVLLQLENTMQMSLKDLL
Sequence of UniProt P06396 (P06396 whole entry, looked up): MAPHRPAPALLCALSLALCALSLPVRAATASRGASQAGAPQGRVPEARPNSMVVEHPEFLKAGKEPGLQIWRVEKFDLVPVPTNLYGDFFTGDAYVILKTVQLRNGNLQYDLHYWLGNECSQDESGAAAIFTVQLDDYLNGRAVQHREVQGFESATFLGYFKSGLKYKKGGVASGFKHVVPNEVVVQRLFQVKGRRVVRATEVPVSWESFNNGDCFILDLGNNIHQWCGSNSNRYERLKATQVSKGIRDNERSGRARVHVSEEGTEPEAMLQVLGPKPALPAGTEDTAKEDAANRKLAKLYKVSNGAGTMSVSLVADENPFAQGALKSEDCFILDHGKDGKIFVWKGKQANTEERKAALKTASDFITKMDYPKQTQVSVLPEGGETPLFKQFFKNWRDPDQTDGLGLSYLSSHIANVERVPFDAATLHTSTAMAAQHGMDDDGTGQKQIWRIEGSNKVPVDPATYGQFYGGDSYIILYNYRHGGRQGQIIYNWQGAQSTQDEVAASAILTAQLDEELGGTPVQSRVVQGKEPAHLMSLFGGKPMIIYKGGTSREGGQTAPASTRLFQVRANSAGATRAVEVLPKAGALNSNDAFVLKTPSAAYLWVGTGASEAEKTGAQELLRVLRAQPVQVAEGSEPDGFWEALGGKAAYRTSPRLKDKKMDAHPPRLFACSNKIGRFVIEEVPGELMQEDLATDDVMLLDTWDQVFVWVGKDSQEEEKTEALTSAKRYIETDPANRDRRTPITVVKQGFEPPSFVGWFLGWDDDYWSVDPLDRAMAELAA
Sequence of UniProt Q8IY81 (Q8IY81 whole entry, looked up): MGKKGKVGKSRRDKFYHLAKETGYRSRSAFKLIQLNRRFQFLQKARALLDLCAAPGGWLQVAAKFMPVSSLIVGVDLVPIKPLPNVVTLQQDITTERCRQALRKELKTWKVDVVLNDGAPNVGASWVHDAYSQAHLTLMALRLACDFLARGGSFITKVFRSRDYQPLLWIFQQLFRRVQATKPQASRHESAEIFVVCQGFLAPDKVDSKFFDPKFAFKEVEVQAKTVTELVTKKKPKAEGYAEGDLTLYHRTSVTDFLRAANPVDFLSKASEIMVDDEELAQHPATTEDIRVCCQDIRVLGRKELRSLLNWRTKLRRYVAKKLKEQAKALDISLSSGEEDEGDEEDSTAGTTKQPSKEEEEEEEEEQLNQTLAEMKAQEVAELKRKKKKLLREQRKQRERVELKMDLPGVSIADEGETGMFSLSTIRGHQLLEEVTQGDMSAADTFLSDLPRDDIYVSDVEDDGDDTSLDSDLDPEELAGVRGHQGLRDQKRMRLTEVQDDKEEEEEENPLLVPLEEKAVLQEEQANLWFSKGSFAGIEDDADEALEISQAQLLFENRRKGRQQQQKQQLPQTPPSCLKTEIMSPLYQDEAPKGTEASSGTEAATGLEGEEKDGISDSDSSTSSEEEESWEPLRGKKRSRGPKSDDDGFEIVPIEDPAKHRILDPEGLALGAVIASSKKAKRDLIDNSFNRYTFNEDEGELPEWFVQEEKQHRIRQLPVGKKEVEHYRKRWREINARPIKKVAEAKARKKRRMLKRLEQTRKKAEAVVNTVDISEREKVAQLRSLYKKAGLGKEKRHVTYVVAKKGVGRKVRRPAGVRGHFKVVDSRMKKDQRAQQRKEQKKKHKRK
Sequence of UniProt Q02790 (Q02790 whole entry, looked up): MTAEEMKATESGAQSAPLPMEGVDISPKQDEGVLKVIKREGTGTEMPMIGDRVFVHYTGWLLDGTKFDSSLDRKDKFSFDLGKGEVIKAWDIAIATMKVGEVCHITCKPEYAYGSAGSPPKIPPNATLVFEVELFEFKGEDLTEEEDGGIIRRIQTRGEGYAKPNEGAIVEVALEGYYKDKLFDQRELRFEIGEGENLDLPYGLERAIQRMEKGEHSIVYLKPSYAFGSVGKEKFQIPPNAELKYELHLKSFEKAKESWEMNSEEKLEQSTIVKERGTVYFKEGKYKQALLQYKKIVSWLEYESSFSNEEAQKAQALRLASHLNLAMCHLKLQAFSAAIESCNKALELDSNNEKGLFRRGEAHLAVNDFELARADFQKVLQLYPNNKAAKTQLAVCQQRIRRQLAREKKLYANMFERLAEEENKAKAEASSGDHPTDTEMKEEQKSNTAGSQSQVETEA

Row | Target | probe-labelled cysteine peptide fold change (10 µM) | probe-labelled cysteine peptide fold change (50 µM)
1 | GALM_Q96C23_247_HLQDFHLNGFDHNFCLK (UniProt Q96C23) | 0.105 | 0.00436
2 | GSN_P06396_672_LFACSNK (UniProt P06396) | 0.00574 | -0.0536
3 | GBF1_Q92538_1588_LDALEWESCFNK (UniProt Q92538) | -0.0251 | 0.114
4 | GLA_P06280_223_QYCNHWR (UniProt P06280) | 0.134 | -0.0482
5 | FKBP4_Q02790_103+107_VGEVCHITCKPEYAYGSAGSPPK (UniProt Q02790) | 0.262 | -0.123
6 | HADHA_P40939_97+110_PGCFIAGADINMLAACK (UniProt P40939) | 0.00312 | -0.0502
7 | FTSJ3_Q8IY81_52_ALLDLCAAPGGWLQVAAK (UniProt Q8IY81) | -0.175 | 0.00307
